Measurements: publication PMC6056059
Changes are numbered by the printed parent chain. These are yes or no findings as the source states them, for the method shown. For part of these data: Binding seen in cells or lysates may run through a third protein. Some binding calls cover weakened binding; strength is not graded here. For part of these data: Tags and fused reporters may be left off the sequences shown.

Chains of the proteins cited; added tags and fusions are not shown.
UniProt Q7L5Y9: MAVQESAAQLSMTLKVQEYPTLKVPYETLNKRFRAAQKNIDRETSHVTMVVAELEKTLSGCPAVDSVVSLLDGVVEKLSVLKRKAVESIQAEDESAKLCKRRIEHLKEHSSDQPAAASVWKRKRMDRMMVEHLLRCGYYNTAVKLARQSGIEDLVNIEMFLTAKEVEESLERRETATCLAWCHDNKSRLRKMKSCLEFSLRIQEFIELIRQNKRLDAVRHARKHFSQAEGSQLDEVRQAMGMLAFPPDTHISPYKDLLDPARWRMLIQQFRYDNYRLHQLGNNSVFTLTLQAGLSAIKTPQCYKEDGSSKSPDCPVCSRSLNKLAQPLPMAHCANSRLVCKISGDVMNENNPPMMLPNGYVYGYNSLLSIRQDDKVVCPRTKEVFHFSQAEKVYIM
UniProt Q9H7D7: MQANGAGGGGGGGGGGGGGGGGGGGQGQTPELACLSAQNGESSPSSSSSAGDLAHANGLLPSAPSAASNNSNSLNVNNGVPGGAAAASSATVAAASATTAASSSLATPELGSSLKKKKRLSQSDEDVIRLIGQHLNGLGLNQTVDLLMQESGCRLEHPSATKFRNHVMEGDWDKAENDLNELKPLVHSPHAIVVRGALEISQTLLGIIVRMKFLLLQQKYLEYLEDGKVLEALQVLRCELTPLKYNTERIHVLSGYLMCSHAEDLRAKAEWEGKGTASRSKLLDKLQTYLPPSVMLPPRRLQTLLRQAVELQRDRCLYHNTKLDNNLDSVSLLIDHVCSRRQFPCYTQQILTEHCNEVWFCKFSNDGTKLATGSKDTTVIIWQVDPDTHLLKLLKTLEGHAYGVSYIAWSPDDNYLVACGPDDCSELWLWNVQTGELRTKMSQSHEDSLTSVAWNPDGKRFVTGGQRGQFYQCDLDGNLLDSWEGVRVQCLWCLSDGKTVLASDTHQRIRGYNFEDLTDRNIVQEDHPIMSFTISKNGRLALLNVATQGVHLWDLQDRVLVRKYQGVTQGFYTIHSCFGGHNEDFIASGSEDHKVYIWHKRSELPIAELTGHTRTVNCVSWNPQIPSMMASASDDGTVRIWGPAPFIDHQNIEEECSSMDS
UniProt Q9H871: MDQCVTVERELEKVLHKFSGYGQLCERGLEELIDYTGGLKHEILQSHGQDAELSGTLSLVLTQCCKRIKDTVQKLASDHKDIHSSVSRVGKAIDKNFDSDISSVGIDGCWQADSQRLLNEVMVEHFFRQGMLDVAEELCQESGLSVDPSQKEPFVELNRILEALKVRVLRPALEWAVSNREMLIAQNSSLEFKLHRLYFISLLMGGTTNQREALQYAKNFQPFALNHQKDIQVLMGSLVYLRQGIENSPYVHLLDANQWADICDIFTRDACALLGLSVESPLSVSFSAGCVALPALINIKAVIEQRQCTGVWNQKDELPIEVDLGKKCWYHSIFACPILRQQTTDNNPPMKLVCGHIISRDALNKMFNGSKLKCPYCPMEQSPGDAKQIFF
UniProt P69566: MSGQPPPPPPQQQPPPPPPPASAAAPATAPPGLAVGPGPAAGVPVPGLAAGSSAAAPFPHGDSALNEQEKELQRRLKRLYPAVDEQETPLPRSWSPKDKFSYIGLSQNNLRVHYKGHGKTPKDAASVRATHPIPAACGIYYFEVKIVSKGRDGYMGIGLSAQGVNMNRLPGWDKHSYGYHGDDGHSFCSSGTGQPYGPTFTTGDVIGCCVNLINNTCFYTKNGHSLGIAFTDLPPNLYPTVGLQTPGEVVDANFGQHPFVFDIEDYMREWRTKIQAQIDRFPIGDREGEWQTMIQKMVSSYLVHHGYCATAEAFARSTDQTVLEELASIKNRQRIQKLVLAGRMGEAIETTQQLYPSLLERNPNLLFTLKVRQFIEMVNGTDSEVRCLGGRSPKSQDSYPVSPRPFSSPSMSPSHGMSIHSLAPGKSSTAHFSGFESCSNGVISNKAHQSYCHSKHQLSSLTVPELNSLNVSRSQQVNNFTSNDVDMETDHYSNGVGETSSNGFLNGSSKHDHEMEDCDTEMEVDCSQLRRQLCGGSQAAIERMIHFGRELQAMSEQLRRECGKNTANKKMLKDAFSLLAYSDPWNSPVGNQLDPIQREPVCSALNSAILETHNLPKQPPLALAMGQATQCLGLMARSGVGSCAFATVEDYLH
UniProt A5YKK6: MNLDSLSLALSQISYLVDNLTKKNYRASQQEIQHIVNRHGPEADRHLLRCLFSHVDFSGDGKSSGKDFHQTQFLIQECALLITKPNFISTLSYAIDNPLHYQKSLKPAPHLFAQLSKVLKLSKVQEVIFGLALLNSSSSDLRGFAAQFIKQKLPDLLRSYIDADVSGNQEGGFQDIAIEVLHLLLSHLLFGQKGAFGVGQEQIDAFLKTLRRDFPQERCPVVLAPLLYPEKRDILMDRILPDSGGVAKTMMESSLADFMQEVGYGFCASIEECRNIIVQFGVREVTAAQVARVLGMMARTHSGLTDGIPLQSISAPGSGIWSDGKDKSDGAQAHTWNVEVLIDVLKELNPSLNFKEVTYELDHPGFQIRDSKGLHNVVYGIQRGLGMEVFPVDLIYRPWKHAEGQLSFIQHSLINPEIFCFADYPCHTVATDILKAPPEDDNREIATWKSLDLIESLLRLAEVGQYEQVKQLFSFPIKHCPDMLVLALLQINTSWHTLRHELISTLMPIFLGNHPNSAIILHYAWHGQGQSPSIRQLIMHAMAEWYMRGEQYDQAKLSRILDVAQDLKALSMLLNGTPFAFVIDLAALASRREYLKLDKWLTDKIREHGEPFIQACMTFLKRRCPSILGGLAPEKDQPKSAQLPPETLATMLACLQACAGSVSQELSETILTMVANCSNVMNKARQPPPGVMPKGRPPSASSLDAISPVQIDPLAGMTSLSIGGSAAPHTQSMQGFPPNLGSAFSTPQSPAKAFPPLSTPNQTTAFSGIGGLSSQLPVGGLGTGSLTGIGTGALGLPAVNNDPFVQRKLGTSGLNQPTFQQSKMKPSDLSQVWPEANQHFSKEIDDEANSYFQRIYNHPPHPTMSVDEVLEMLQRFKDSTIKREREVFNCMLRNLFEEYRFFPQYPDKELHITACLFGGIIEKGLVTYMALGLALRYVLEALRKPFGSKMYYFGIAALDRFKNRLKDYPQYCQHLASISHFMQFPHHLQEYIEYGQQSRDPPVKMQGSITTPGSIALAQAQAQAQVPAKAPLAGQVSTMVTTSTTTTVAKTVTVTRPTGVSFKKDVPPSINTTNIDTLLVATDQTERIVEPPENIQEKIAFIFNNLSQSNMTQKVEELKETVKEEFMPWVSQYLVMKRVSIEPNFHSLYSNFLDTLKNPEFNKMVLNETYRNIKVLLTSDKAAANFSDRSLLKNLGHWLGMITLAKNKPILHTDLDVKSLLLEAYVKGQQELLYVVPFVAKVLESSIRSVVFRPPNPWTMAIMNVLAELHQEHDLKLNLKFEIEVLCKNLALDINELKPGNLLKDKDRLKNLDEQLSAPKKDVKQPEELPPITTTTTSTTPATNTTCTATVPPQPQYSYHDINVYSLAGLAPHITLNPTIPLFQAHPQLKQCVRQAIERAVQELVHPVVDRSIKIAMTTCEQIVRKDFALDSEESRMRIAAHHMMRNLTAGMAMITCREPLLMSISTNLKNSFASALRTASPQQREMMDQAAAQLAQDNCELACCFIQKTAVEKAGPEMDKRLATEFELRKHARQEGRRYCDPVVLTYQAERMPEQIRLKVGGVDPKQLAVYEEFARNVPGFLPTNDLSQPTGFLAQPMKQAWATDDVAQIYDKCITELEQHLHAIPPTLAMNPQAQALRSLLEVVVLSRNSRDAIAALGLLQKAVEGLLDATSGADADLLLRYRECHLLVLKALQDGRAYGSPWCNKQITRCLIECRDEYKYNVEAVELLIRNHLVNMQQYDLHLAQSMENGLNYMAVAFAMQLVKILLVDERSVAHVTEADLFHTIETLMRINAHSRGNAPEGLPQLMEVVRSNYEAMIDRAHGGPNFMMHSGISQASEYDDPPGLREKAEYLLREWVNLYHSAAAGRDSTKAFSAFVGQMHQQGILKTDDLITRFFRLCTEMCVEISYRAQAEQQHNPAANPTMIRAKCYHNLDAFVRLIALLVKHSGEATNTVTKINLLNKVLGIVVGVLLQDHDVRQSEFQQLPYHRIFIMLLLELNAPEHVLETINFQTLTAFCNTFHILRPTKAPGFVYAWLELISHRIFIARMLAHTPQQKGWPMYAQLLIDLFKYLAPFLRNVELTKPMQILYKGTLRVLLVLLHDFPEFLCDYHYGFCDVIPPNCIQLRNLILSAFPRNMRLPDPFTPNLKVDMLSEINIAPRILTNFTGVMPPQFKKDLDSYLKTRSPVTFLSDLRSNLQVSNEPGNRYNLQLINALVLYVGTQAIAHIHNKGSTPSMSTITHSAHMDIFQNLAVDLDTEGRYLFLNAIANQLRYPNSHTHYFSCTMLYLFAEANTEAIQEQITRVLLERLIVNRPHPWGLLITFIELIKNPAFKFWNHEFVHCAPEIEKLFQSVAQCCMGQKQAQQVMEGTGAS
UniProt Q8IUR7: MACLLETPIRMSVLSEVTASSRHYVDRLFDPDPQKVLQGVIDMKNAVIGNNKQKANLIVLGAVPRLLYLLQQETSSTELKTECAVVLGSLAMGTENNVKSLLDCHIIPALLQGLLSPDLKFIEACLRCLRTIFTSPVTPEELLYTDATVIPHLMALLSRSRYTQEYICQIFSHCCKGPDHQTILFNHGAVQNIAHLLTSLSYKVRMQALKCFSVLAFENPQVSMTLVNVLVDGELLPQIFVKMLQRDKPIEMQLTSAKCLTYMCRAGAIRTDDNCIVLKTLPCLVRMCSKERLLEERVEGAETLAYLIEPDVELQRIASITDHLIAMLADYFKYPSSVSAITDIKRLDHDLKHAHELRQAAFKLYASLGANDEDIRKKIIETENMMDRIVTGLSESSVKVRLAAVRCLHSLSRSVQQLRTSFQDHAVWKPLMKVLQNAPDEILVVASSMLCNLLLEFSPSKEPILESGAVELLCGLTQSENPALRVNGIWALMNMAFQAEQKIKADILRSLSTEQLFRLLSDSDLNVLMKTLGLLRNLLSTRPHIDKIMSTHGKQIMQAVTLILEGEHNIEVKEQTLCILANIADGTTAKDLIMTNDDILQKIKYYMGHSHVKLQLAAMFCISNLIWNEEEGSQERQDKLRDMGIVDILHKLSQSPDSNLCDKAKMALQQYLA
UniProt Q9D7M1: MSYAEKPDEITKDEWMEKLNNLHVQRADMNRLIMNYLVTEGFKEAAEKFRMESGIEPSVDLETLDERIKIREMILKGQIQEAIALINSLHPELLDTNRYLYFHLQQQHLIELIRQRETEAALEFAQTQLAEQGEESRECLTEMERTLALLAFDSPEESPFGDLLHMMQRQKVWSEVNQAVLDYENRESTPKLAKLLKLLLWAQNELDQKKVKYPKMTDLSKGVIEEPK

B1: endogenous WDR26 (mIMCD3 cells) (protein, UniProt Q8C6G8 1-641)
chain: MQANGAGGGGGGGGGGQGQTPELACLSAQNGESSPSATSAGDLAHANGLLPAAPSAAGNNSNSLSVNNGVPGGAAAASATAAAAQATPELGSSLKKKKRLSQSDEDVIRLIGQHLNGLGLNQTVDLLMQESGCRLEHPSATKFRNHVMEGDWDKAENDLNELKPLVHSPHAIVVRGALEISQTLLGIIVRMKFLLLQQKYLEYLEDGKVLEALQVLRCELTPLKYNTERIHVLSGYLMCSHAEDLRAKAEWEGKGTASRSKLLDKLQTYLPPSVMLPPRRLQTLLRQAVELQRDRCLYHNTKLDNNLDSVSLLIDHVCSRRQFPCYTQQILTEHCNEVWFCKFSNDGTKLATGSKDTTVIIWQVDPDTHLLKLLKTLEGHAYGVSYIAWSPDDSYLVACGPDDCSELWLWNVQTGELRTKMSQSHEDSLTSVAWNPDGKRFVTGGQRGQFYQCDLDGNLLDSWEGVRVQCLWCLSDGKTVLASDTHQRVRGYNFEDLTDRNIVQEDHPIMSFTISKNGRLALLNVATQGVHLWDLQDRVLVRKYQGVTQGFYTIHSCFGGHNEDFIASGSEDHKVYIWHKRSELPIAELTGHTRTVNCVSWNPQIPSMMASASDDGTVRIWGPAPFIDHQNIEEECSSMDS
B2: Flag-tagged ANKS3 (protein, UniProt Q6ZW76 1-656)
chain: MSELSDEASEPELLNRSLSMWHGLGTQVSGEELDVPLDLHTAASIGQYEVVKECVQRRELDLNKKNGGGWTPLMYASYIGHDTIVHLLLEAGVSVNVPTPEGQTPLMLASSCGNESIAYFLLQQGAELEMKDIQGWTALFHCTSAGHQHMVRFLLDSGANANVREPICGFTPLMEAAAAGHEIIVQYFLNHGVKVDARDHSGATARMLAKQYGHMKIVALMDTYSPSLPKSLYRSPEKYEDLSSSDESCPAPQRQRPCRKKGVSIHEGPRALARITGIGLGGRAPRPRYEQAPPRGYVTFNSSGENPLEEEGLCCRDVTSPINERDVESSSSSSSREEHAFCANLGPVQSSSSSEGLARAQGLSSEASVESNEDSDHACKSSARKQAKSYMKTKNPDSQWPPRAATDREGFLAESSPQTQRAPYSGPQDLAALLEQIGCLKYLQVFEEQDVDLRIFLTLTESDLKEIGITLFGPKRKMTSAIARWHSSARPPGDALELAYADRLEAEMQELAIQLHKRCEEVEATRGQVCQEQELRAVVESCLLEQDRAREDLQARLRETWALARDAALVLDQLRACQAELSSRVRQDQPPGAATLGLAVPPADSKGWQASLQAMSLPELSGALEDRVREMGQALCLVTQSLEKLQVLNGKKWRET
B3: GID4, yeast two-hybrid fusion (protein, UniProt Q8IVV7 1-300)
chain: MCARGQVGRGTQLRTGRPCSQVPGSRWRPERLLRRQRAGGRPSRPHPARARPGLSLPATLLGSRAAAAVPLPLPPALAPGDPAMPVRTECPPPAGASAASAASLIPPPPINTQQPGVATSLLYSGSKFRGHQKSKGNSYDVEVVLQHVDTGNSYLCGYLKIKGLTEEYPTLTTFFEGEIISKKHPFLTRKWDADEDVDRKHWGKFLAFYQYAKSFNSDDFDYEELKNGDYVFMRWKEQFLVPDHTIKDISGASFAGFYYICFQKSAASIEGYYYHRSSEWYQSLNLTHVPEHSAPIYEFR

Assays:
Flag-tagged ANKS3 = molecular target: T1, Flag-tagged ANKS3 (UniProt Q6ZW76); experiment: co-IP; transfected HEK293T extracts (TBS, 1 mM DTT, 0.05% NP-40); anti-HA agarose, anti-FLAG M2 gel or anti-MKLN1; 2 hrs at 4°C; Western blot; mock-transfected cells or pre-immune IgG as control; in Fig 6E with or without cotransfected Flag-ANKS3 or Flag-ANKS3ΔC
T1 sequence: B2 chain

[1] = molecular target: T2, Bicc1-D913K915E916/AAA (MutD), yeast two-hybrid fusion (mouse) (UniProt Q99MQ1); experiment: two-hybrid; Gal4-BD (pGBKT7) and Gal4-AD (pACTII) fusions, each protein as bait and as prey; HIS3 reporter, growth on Leu-, Trp-, His- medium with 3-AT titration, three days at 30°C
T2 sequence: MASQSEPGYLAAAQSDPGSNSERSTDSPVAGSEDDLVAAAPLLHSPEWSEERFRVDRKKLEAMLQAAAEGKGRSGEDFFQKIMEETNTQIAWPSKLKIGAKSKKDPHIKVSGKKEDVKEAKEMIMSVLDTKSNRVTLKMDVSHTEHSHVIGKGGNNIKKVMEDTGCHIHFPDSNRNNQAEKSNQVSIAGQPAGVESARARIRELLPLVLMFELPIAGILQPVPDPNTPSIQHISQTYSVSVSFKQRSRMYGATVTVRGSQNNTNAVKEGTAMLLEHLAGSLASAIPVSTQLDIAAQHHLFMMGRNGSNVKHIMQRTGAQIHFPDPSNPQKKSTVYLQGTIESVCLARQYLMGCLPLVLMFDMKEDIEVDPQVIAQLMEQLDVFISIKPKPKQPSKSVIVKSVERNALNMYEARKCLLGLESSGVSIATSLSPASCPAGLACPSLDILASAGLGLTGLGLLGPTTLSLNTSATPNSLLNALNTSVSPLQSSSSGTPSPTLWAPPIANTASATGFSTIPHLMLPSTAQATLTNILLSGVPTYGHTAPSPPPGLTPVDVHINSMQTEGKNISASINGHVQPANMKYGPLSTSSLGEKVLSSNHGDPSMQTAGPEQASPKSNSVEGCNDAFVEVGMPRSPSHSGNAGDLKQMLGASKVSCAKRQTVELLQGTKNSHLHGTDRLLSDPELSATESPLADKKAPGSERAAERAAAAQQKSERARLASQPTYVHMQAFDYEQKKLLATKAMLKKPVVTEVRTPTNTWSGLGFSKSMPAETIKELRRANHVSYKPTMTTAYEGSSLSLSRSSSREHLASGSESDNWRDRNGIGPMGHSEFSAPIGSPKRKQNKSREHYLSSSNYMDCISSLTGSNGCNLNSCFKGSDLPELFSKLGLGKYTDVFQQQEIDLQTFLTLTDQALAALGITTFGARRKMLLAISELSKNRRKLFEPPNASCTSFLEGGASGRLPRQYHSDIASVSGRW

[2] = molecular target: MAEA, yeast two-hybrid fusion (human) (UniProt Q7L5Y9); experiment: as above
[3] = molecular target: T3, endogenous Bicc1 (mIMCD3 cells) (mouse (endogenous in mIMCD3)) (UniProt Q99MQ1); experiment: co-IP; endogenous Bicc1 immunoprecipitated from mIMCD3 cell extracts with a custom anti-Bicc1 antibody on protein G Sepharose; pre-immune IgG as control; Western blot
T3 sequence: T2 sequence with A913D, A915K, A916E

HA-Bicc1 (mouse) [4] = molecular target: T4, HA-Bicc1 (mouse) (UniProt Q99MQ1); experiment: co-sedimentation; continuous 15 to 60% sucrose density gradients of extracts of HEK293T cells transfected with HA-Bicc1 or empty vector; fractions analysed by Western blot
T4 sequence: T2 sequence with A913D, A915K, A916E

[5] = molecular target: T5, Bicc1 SAM domain, yeast two-hybrid fusion (mouse) (UniProt Q99MQ1); experiment: two-hybrid; Gal4-BD (pGBKT7) and Gal4-AD (pACTII) fusions, each protein as bait and as prey; HIS3 reporter, growth on Leu-, Trp-, His- medium with 3-AT titration, three days at 30°C
T5 sequence: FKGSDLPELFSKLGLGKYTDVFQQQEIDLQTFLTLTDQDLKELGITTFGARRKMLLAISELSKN

HA-Bicc1 (mouse) [6] = molecular target: T4, HA-Bicc1 (mouse); experiment: co-IP; transfected HEK293T extracts (TBS, 1 mM DTT, 0.05% NP-40); anti-HA agarose, anti-FLAG M2 gel or anti-MKLN1; 2 hrs at 4°C; Western blot; mock-transfected cells or pre-immune IgG as control; in Fig 6E with or without cotransfected Flag-ANKS3 or Flag-ANKS3ΔC
[7] = molecular target: T6, WT Bicc1, yeast two-hybrid fusion (mouse) (UniProt Q99MQ1); experiment: two-hybrid; Gal4-BD (pGBKT7) and Gal4-AD (pACTII) fusions, each protein as bait and as prey; HIS3 reporter, growth on Leu-, Trp-, His- medium with 3-AT titration, three days at 30°C
T6 sequence: T2 sequence with A913D, A915K, A916E

Molecule | binding [1] | binding [3] | other results
WD repeat-containing protein 26 (WDR26), endogenous in HEK293 cells (from UniProt Q9H7D7 1-661) | – | – | binding (Flag-tagged ANKS3): no binding
RMND5A, yeast two-hybrid fusion (from UniProt Q9H871 1-391) | no binding | – | binding [2]: binds
endogenous RanBP9 (mIMCD3 cells) (from UniProt P69566 1-653) | – | binds | –
NOT1 subunit of the CCR4-NOT complex (CNOT1), endogenous in HEK293 cells (from UniProt A5YKK6 1-2376) | – | – | binding (HA-Bicc1 (mouse) [4]): binds
ARMC8, yeast two-hybrid fusion (from UniProt Q8IUR7 1-673) | binds | – | binding [5]: no binding
endogenous Twa1 (mIMCD3 cells) (from UniProt Q9D7M1 1-228) | – | binds | –
B1 | – | binds | –
B2 | – | – | binding (HA-Bicc1 (mouse) [6]): binds
B3 | no binding | – | binding [7]: no binding
